# Publication PMC6919601, “Identification of Plasmodium dipeptidyl aminopeptidase allosteric inhibitors by high throughput screening” (PLoS ONE, 2019)
# The campaign covered roughly 110,000 compounds. About 230 (0.21%) showed an effect of 50% or more. Some of the results follow.
# Molecular target: DPAP1 (Plasmodium falciparum, UniProt Q8IIJ9)
# Assay: primary screen, percent inhibition; read by cleavage of a fluorogenic dipeptide substrate; higher = more effect of the substance
# Parameters: species or system P. falciparum D10 trophozoite lysates; single well
# 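Further: 30 min substrate incubation versus DMSO and 10 µM JCP410 controls.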
# Sequence of DPAP1 (Q8IIJ9 whole entry, looked up): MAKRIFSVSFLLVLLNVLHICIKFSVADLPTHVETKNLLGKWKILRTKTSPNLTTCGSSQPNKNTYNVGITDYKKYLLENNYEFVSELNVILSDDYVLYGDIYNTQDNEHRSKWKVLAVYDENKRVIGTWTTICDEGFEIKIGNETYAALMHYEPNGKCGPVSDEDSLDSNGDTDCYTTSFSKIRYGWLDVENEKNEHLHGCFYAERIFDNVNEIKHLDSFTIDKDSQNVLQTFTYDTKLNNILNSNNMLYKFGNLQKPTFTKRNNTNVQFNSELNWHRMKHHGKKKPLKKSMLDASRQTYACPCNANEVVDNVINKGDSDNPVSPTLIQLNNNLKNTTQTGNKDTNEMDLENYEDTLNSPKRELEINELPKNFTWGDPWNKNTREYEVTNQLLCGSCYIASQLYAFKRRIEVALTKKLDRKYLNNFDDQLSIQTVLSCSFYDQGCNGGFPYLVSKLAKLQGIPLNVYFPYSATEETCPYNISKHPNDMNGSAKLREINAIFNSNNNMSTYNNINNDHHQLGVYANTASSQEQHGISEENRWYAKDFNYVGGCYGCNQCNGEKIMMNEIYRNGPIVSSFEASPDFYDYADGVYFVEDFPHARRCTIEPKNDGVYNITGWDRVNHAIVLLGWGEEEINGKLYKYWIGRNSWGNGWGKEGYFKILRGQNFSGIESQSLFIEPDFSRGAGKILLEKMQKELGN
row,Compound,% Inhibition @ 10 uM [%]
1,Cc1ccc2c(c1)c1c(n2CC2COC(C)(C)O2)C(=O)CCC1 (stereo not drawn),-4.94
2,O=C(CSc1nc2ccccc2c(=O)n1CCc1ccccc1)NCc1ccco1,1.03
3,Cc1cc(NC(=O)c2cc(C)on2)no1,-0.591
4,COCc1cc(C2SCC(=O)Nc3c2c(C)nn3-c2ccccc2)ccc1OC (stereo not drawn),-3.63
5,O=C(NCC(=O)N1CCCC1C(=O)O)OC1CCCCC1 (stereo not drawn),4.64
6,CCCc1nc2c3ccccc3nc(NCCc3ccc(S(N)(=O)=O)cc3)n2n1,-2.42
7,Cc1cccc(Cn2c(=O)n(Cc3ccco3)c(=O)c3sc4ccccc4c32)c1,-8.42
8,Nc1cccc(C(=O)N2N=C(C(F)(F)F)CC2(O)c2ccc(F)cc2)c1 (stereo not drawn),-2.87
9,CCN(CC)CCCOC(=O)c1ccc(O)c(O)c1,-1.54
10,COc1ccc2c(CNCCc3ccco3)c(C(=O)O)n(Cc3ccccc3C)c2c1,-3.46
11,N#CC1=C(N)Oc2[nH]nc(-c3cccs3)c2C1c1ccc2c(c1)OCO2 (stereo not drawn),-6.35
12,CCn1c(=O)c2sccc2n2c(CCCC(=O)N3CCN(c4ncccn4)CC3)nnc12,-2.44
13,COc1cc(Br)cc2c1Oc1nc(-c3cccc(O)c3)nc(O)c1C2,3.92
14,COc1c2c(nc3occc13)C(CC=C(C)C)(OC)C(O)CC2 (stereo not drawn),0.501
15,COc1cc(C2C(C#N)=C(N)Oc3[nH]nc(-c4cccc5ccccc45)c32)cc(OC)c1OC (stereo not drawn),1.03
16,O=C(Cn1c[n+](CC(=O)c2ccc(Br)cc2)cn1)c1ccc(Br)cc1,5.19
17,Cc1nc2c(CN(C)C)c(O)ccc2[nH]1,3.65
18,COc1cccc(OC)c1C(=O)Nc1c(C(=O)NC(C)(C)C)oc2ccccc12,1.75
19,CC1CCCC(C)N1C(=O)c1ccc(C(=O)N2C(C)CCCC2C)nc1 (stereo not drawn),-7.89
20,COc1ccc(CC(=O)Nc2ccc(C(C)=O)cc2)cc1,-4.66
21,CCCN1CCN(c2ncnc3c2nc2n3CCCCC2)CC1,0.233
22,C=CCN1C(=O)S/C(=C\c2cccc(OCC)c2O)C1=O,-4.97
23,COc1cc(C2NCCc3c2[nH]c2ccccc32)ccc1OC(C)C (stereo not drawn),1.02
24,COc1ccc2oc(=O)c(C(=O)Nc3nc(C45CC6CC(CC(C6)C4)C5)cs3)cc2c1,-2.44
25,O=C(O)c1cc(S(=O)(=O)Nc2ccccc2)c(Cl)cc1Cl,-17
26,CCCc1cc(O)n2nc(SCc3ccccc3)nc2n1,0.627

row,Compound,% Inhibition @ 10 uM [%]
1,Cc1cccc(C)c1NC(=O)c1cccs1,1.96
2,COCCN(CC(O)Cn1c2ccccc2c2ccccc21)C(=O)c1ccccc1 (stereo not drawn),-1.33
3,Cn1c(=O)c2c(nc(CN3CCCCC3)n2CC(=O)c2ccccc2)n(C)c1=O,-6.31
4,CC1CCCCC1NC(=O)/C=C/C(=O)O (stereo not drawn),-1.99
5,CCCCC(NC(=O)OCc1ccccc1)C(=O)NC(Cc1ccc(OC)cc1)C(=O)CO (stereo not drawn),-2.35
6,CCOC(=O)c1cnc(N2CCCCC2)nc1C,-4.69
7,COc1ccc(NC(=O)COc2ccc(Cl)cc2Cl)c(OC)c1,-4.82
8,COc1ccc(C2C=C(c3ccc(C)cc3)Nc3nc4ccccc4n32)cc1OC (stereo not drawn),1.73
9,CCOC(=O)C1=C(C)N=c2s/c(=C\c3cccs3)c(=O)n2C1c1ccc(Cl)cc1 (stereo not drawn),3.61
10,c1ccc(-c2cn3ncsc3n2)cc1,-2.71
11,COc1ccccc1/C=C1\C(=O)NC(=O)N(c2c(C)cc(C)cc2C)C1=O,-6.18
12,CC(=O)N[C@H]1[C@H](Oc2cc(C)ccc2C(C)C)O[C@H](CO)[C@@H](O)[C@@H]1O,-0.0235
13,O=C(/C=C/c1ccco1)c1cccs1,3.85
14,COc1ccc2nc(-c3ccccc3)cc(OC)c2c1,5.42
15,NCCc1c(-c2ccccc2)n(-c2ccccc2)c2ccccc12,-0.128
16,COC(=O)C1=CN(C)C=C(C(=O)OC)C1c1cc(Br)ccc1OC,-1.46
17,NC(=O)COc1ccc(C23CC4CC(CC(C4)C2)C3)cc1,0.962
18,CC(C)Cn1c(CCNC(=O)C2CCCCC2)nc2ccccc21,-3.52
19,CC(=O)Nc1ccc(-c2cn3ccccc3n2)cc1,-0.833
20,CCOc1ccccc1-c1nn2c(-c3ccc(C)cc3)nnc2s1,6.01
21,COc1ccc(/N=c2\oc(C)cc(O)c2C(C)=O)cc1,-3.46
22,COc1ccc(CCNC(=O)[C@H](Cc2ccccc2)N2Cc3ccccc3C2=O)cc1OC,2.93
23,N=C(Cc1cccs1)NOC(=O)COc1ccc(Br)cc1,0.343
24,COc1ccc(-c2nc(CS(=O)CC(=O)NC3CCC(C)CC3)c(C)o2)cc1OC (stereo not drawn),-8.65
25,Cc1cc(NC(=O)COCc2cc(-c3ccc4c(c3)OCO4)on2)no1,9.46
26,CN(CCO)c1nc2c(c(=O)n(Cc3ccc(Cl)cc3)c(=O)n2C)n1C,3.69

row,Compound,% Inhibition @ 10 uM [%]
1,CCN(CC)CCN(CC)Cc1cccc(Cl)c1,-1.41
2,COc1cccc2sc(N(CCCN(C)C)C(=O)c3ccco3)nc12,1.76
3,CC(CCN1CCC(O)(c2ccc(Br)cc2)CC1)c1ccccc1 (stereo not drawn),-1.21
4,CCOC(=O)C1CCCN(Cc2cccc(C(F)(F)F)c2)C1 (stereo not drawn),3.05
5,Cc1nn(CCCC(=O)N2CCc3ccccc3C2)c(=O)c2cc3sccc3n12,4.95
6,CN(C)c1ccc(C2OC(COc3ccccc3)CN(C(=O)c3ccccc3)O2)cc1 (stereo not drawn),-6.7
7,Cc1ccc(CSc2nc3nccnc3c(=O)n2CCC(C)C)cc1,-3.73
8,Cc1ccc(-c2cc(N)n3nc(-c4ccc(C)cc4)cc3n2)cc1,-2.14
9,O=S(=O)(c1ccccc1)N1N=C2CCCCC2C1(O)C(F)(F)F (stereo not drawn),0.722
10,Nc1ccc2c(Cl)nn(-c3ncc(C(F)(F)F)cc3Cl)c2c1,1.64
11,COc1ccc(C2C(C#N)=C(N)N(c3cccc(C)c3)C3=C2C(=O)CCC3)cc1OC (stereo not drawn),-3.26
12,Cc1ccc(Cl)cc1-n1ncc2c(NCCOCCO)ncnc21,1.91
13,COc1ccc(OC)c2c1ncn2C,-4.15
14,O=C1CC(C(=O)Nc2cccc3ccccc23)C(c2ccccc2)O1 (stereo not drawn),5.53
15,Cc1ccc(C2=NS(=O)(=O)N(C)C(C(=O)Nc3cc(C)n(CC(=O)N4CCOCC4)n3)=C2)cc1,2.32
16,c1ccc2c(c1)nc(NC1CCCCC1)c1ccccc12,5.73
17,O=C(c1ccccc1Br)N1C(=O)c2ccccc2S1(=O)=O,4.06
18,O=C(Nc1n[nH]c(-c2ccncc2)n1)c1ccccc1,-5.53
19,O=C(/C=C/c1ccccc1)Nc1ccc(F)cc1F,5.03
20,CCOc1ccc(CC/N=C2\CC(c3ccccc3)CC(O)=C2C(C)=O)cc1OCC (stereo not drawn),4.19
21,COc1cccc(C2C3=C(O)CCCC3=NC3=C2C(=O)CCC3)c1 (stereo not drawn),-1.6
22,Cc1cc(OCC(=O)N(Cc2cccc(F)c2)Cc2ccco2)ccc1Cl,2.29
23,CCOC(=O)C1=C(C)N(c2ccccc2)C(=O)/C1=C\c1ccc(Cl)c(Cl)c1,-3.77
24,COc1cc(S(=O)(=O)N2CCN(c3cccc(Cl)c3)CC2)ccc1Cl,-2.66
25,COc1ccc(N(CC(=O)NC2CCCC2)S(=O)(=O)c2ccccc2)cc1,-6.14
26,O=C1/C(=C/c2cc(Cl)cc(Br)c2O)Sc2ccccc21,-2.42

row,Compound,% Inhibition @ 10 uM [%]
1,Cc1ccc2cccc(OCC(=O)c3ccc(C)c(C)c3)c2n1,2
2,O=C(COCc1cc(-c2ccc3c(c2)OCO3)on1)NC1CCCC1,1.34
3,COc1ccc(OC)c(NC(=O)c2ccc(C)o2)c1,3.77
4,CCOC(=O)N1CCC(c2cc(O)n(-c3ccccc3)n2)CC1,2.39
5,COc1cccc(-c2cc(C(F)(F)F)nc(-n3cccn3)n2)c1,1.82
6,CC(C)CNC(=O)c1cc(-c2ccccc2F)no1,-0.613
7,Cc1cc(C)c2c(c1)c(=O)c(C(=O)O)cn2C,-2.66
8,COc1ccccc1C(=O)NC1CCCCC1,5.26
9,Cc1nc2nc(C)c(CCC(=O)NCc3ccc4c(c3)OCO4)c(C)n2n1,-4.1
10,c1ccc(OCC2CN3CCOB(OCC3)O2)cc1 (stereo not drawn),-3.98
11,COc1cc(/C=C(/C#N)C(N)=S)ccc1OCCN1CCOCC1,28.2
12,CCc1ccc2occ(CC(=O)Nc3nnc(C(C)C)s3)c2c1,-0.671
13,CC1=CC2=NC(C(F)(F)F)(C(F)(F)F)N=C(c3cccnc3)N2C=C1,-3.53
14,CCc1nn(CC(=O)N2CC(C)CC(C)C2)c(=O)c2cccn12 (stereo not drawn),-0.405
15,C(=C\c1ccccc1)/CN1CCN(Cc2ccc3ccccc3c2)CC1,-1.77
16,c1ccc(C2NCc3ccccc3-n3cccc32)cc1 (stereo not drawn),-0.736
17,Cc1cc(/C=C2\NC(=O)N(Cc3ccc(Cl)cc3)C2=O)c(C)n1-c1ccc2c(c1)OCO2,5.37
18,CCn1nc(C)c(NC(=O)c2c(Cl)cccc2Cl)c1C,-9.31
19,CN1C(=O)c2ccccc2C(C(=O)NCCCN2CCCCCC2)C1c1cn(C)c2ccccc12 (stereo not drawn),8.12
20,CC(C)CC1(C)N=C(c2ccccc2)C(=S)N1 (stereo not drawn),4.63
21,Cc1ncc(CO)c2c1Oc1nc(-c3ccccc3F)nc(SC(F)F)c1C2,-1.11
22,COc1ccc(NC(=O)C2CCN(S(C)(=O)=O)CC2)c(OC)c1,-6.36
23,O=C1O[C@@H]2C[C@H]3C[C@@H]2[C@@H]1[C@H]3C(=O)N1CCCCC1,-1.15
24,Cc1cc(C)c2c(N)c3ccccc3nc2n1,-1.98
